The values that follow come from the supplement of paper PMC11417369.

± gives the standard deviation of the averaged measurements. The list shows a part of the results.

This test deals with PfAP2-EXP AP2 domain (GST-tagged). Description: gcPBM binding intensity (ln(normalized median fluorescence intensity)); higher = stronger DNA binding. An outline of the steps:
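Binding intensity is the highest Masliner-normalised natural-log median intensity over replicate spots in either probe orientation. To obtain it, GST-tagged P. falciparum DNA-binding domains made in E. coli were incubated for 1 h on an Agilent 4 × 180k array of primer-extended double-stranded 36-bp intergenic genomic probes plus negative controls. Detection used Alexa488 anti-GST antibody with scanning at 488 nm.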
For “TTTTATAATGTTGTAGTGCAAAATACGTATATTTAT [GTGCAC_site9826]”, the “gcPBM binding intensity (ln)” value came out at 8.64 ± 0.23.

On to “GAAAATTATATGTGTTGTACACTTGCAACAACTATT [XGTACX_site3637]”, for which the “gcPBM binding intensity (ln)” value is 8.49 ± 0.23.

“AGATATAAGAAAAGCACACACACACCCAAAAAAAAA [CACACA_site2826]”: the “gcPBM binding intensity (ln)” value worked out at 8.87 ± 0.26.

Turning to “AAAATATATATTAACACACACACAAAAAAAAAAAAA [CACACA_site1325]”, the “gcPBM binding intensity (ln)” value stood at 8.35 ± 0.52.

As to “ATATAAATATTTATTAGTACACATTAGTGTAGTTTT [XGTACX_site4493]”, the “gcPBM binding intensity (ln)” value turned out to be 8.4 ± 0.35.

With “CTATATTATTTTTCTTGTACGTAGGAAATATAGCTA [XGTACX_site6176]”, the “gcPBM binding intensity (ln)” value came to 8.49 ± 0.47.

Take “AATATATGGTTTCATTATATTAAATTCAATTTAATG [CACACA_negctrl_site675]”: the “gcPBM binding intensity (ln)” value came out at 8.18 ± 0.38.

For “GGTGGCTAAATTACAACACACGACGGAATATTATAT [CACACA_site4114]”, the “gcPBM binding intensity (ln)” value stood at 8.65 ± 0.65.

In the case of “AGTATATAATAATTTACACACAAAAAAATATCAGGA [CACACA_site3517]”, the “gcPBM binding intensity (ln)” value was determined as 8.63 ± 0.38.

Turning to “TGATTTATCTATATTTTATAAGTTATTTATTTTTTT [CACACA_negctrl_site1603]”, the “gcPBM binding intensity (ln)” value amounted to 8.23 ± 0.21.

As to “TTTTATTCATTGAGCACACAAAATAAATTATCAAAA [CACACA_site3279]”, the “gcPBM binding intensity (ln)” value amounted to 8.64 ± 0.64.

On to “ACCGTGGGAAGACACACACACACACCCACATATATA [CACACA_site333]”, for which the “gcPBM binding intensity (ln)” value came to 8.52 ± 0.49.

On to “CACAAAAATGTAATCACACATATATATATATATATA [CACACA_site5818]”, for which the “gcPBM binding intensity (ln)” value turned out to be 10.1 ± 0.38.

As for “AAAAAATGAAAATATTCCAAAATAGAGGGAAATGTA [GTGCAC_negctrl_site572]”, the “gcPBM binding intensity (ln)” value is 8.62 ± 0.37.

Consider “TATGTGATAACACGCACACAAATGTATTTAATTTAT [CACACA_site5435]”, for which the “gcPBM binding intensity (ln)” value was found to be 8.3 ± 0.39.

Regarding “AAAATTAGGAGACATGCATGTAACGATAAATATAAC [TGCATGCA_site148]”, the “gcPBM binding intensity (ln)” value was found to be 9.79 ± 0.35.

In the case of “CTTTTTTAAAATATTTAACACACAATTTTAATGCAT [CACACA_site9303]”, the “gcPBM binding intensity (ln)” value stood at 8.39 ± 0.28.

“ATTCTAATAATATATACACACACATATATATTTATA [CACACA_site8629]”: the “gcPBM binding intensity (ln)” value was 8.47 ± 0.31.

With “TTATATTTATATATTTGTACGTATGTATATAATTCA [XGTACX_site2993]”, the “gcPBM binding intensity (ln)” value was determined as 8.31 ± 0.26.

Regarding “TAAATAATTCTTTTAGTACACACGAATAAGCAGATA [CACACA_site305]”, the “gcPBM binding intensity (ln)” value is 8.95 ± 0.44.

For “GTTACATACATATACACACACATATATATATATATA [CACACA_site901]”, the “gcPBM binding intensity (ln)” value turned out to be 9.99 ± 0.35.

In the case of “TAATTTTTATTCAAGAGTACACAAAAGATAACTAAA [XGTACX_site4060]”, the “gcPBM binding intensity (ln)” value worked out at 8.51 ± 0.3.

For “TTCTTACACGTTTGCACACTAAAATATATATATATA [CACACA_site434]”, the “gcPBM binding intensity (ln)” value was 9.84 ± 0.23.

As for “TAGATACCTATAGAAACATGCAATTGAATATATTTC [TGCATGCA_site402]”, the “gcPBM binding intensity (ln)” value was found to be 8.68 ± 0.29.

For “TAAAAAAAATCATTCACACATATATGAAAAAAAAAA [CACACA_site5546]”, the “gcPBM binding intensity (ln)” value came to 8.37 ± 0.72.

Turning to “ATATTAAAGCCTTTTTGTACATATAAATAAACATAG [XGTACX_site4667]”, the “gcPBM binding intensity (ln)” value was determined as 8.7 ± 0.36.

As for “CTTGAAAGATTTTATTGTACTCATAAGATACATTTC [XGTACX_site3178]”, the “gcPBM binding intensity (ln)” value was 8.31 ± 0.36.

As to “TCATACAATATTAAATGTACATATATATATATATAT [XGTACX_site8828]”, the “gcPBM binding intensity (ln)” value worked out at 10.1 ± 0.34.

On to “ATTTTTTTTTTTTTTTTTCATTTTTTTTTTTTTTTT [CACACA_negctrl_site1204]”, for which the “gcPBM binding intensity (ln)” value amounted to 8.12 ± 0.49.

As to “AACTCTTAAAAATAAACATGCAAATATTTACCTTCT [TGCATGCA_site986]”, the “gcPBM binding intensity (ln)” value came to 8.5 ± 0.31.

“TATATATTATATATATGTACATAATTCCATGTTTAG [XGTACX_site3943]”: the “gcPBM binding intensity (ln)” value is 8.71 ± 0.41.

For “TTTTTTTTCTTTTTTTTTTTTTCAAAAGCTTATAAT [CACACA_negctrl_site1526]”, the “gcPBM binding intensity (ln)” value came out at 8.16 ± 0.17.

On to “TGTATAATCATATATACACACACATATATATATATA [CACACA_site8674]”, for which the “gcPBM binding intensity (ln)” value was found to be 10.1 ± 0.24.

As for “TTATATAAAAAAAAATGTACATATAATTGGTAAATT [XGTACX_site5180]”, the “gcPBM binding intensity (ln)” value amounted to 8.77 ± 0.42.

Take “GTGTATTTGGTGCGCACACACATGCAAAAAGAAATA [CACACA_site4768]”: the “gcPBM binding intensity (ln)” value came out at 9.29 ± 0.23.

Consider “AAAAATATTTAAAATACACACATATATATAATATAT [CACACA_site2006]”, for which the “gcPBM binding intensity (ln)” value turned out to be 8.37 ± 0.4.

As to “TTGAAAATAATATGAAGTACATTATTTTTTTTTAAT [XGTACX_site4499]”, the “gcPBM binding intensity (ln)” value amounted to 7.94 ± 0.27.

With “AAAACTTTCCATGTTTGTACATAAAATATAATAATT [XGTACX_site2716]”, the “gcPBM binding intensity (ln)” value turned out to be 8.44 ± 0.41.

For the sequence “ACAAAATGTAAATAAACACACATATTTATATTTATA [CACACA_site6719]”, the “gcPBM binding intensity (ln)” value is 8.34 ± 0.24.

AATTCACCAAAAAAAGTGCATATTCAATATATATTA: the “gcPBM binding intensity (ln)” value came to 8.22 ± 0.27.

On to “TTGGTGGATAAATTTACACACAATAATTTTCGTTCA [CACACA_site467]”, for which the “gcPBM binding intensity (ln)” value is 8.4 ± 0.27.

As for “AATAAAATATTATGTGCATGCTGTTTTATTTATTAA [TGCATGCA_site102]”, the “gcPBM binding intensity (ln)” value was determined as 9.22 ± 0.31.

As to “ATAATTTCAATATTTAATATCATATATATATATTTT [GTGCAC_negctrl_site713]”, the “gcPBM binding intensity (ln)” value came to 8.36 ± 0.31.

Turning to “TAAAACAAAACAAAAATAGGATTATATTCCTTTTTT [CACACA_negctrl_site1003]”, the “gcPBM binding intensity (ln)” value amounted to 8.09 ± 0.52.

As for “AAATAAAAAAATACCCAACACCATGCCAAATGTGAA [CACACA_negctrl_site411]”, the “gcPBM binding intensity (ln)” value amounted to 8.54 ± 0.56.

“ATATATATATATATATGTACATATGTGTATATAACT [XGTACX_site495]”: the “gcPBM binding intensity (ln)” value was 10.1 ± 0.35.

For the sequence “TAAAATTCGAAAAATTGTACTATTTATATATCTGTA [XGTACX_site6478]”, the “gcPBM binding intensity (ln)” value came to 8.13 ± 0.46.

With “ATCAACATTACATTTAGTACACATATATTTCTATGT [XGTACX_site4436]”, the “gcPBM binding intensity (ln)” value was found to be 8.74 ± 0.27.

In the case of “TAGTTAGGCCCTACATGTACATAATATATATTACTT [XGTACX_site1137]”, the “gcPBM binding intensity (ln)” value worked out at 9.21 ± 0.48.

“TATATAAGTATAAAATGTACATAAAATTTTATGTTA [XGTACX_site2613]”: the “gcPBM binding intensity (ln)” value was found to be 8.53 ± 0.41.

For “CTAATTAATATTTGTACACACATATTTAACCTACTA [CACACA_site3191]”, the “gcPBM binding intensity (ln)” value was 8.48 ± 0.27.

Regarding “TAAAAATTTACATGTTGTACATATAATTATATAATC [XGTACX_site4577]”, the “gcPBM binding intensity (ln)” value came out at 8.39 ± 0.33.

As to “AGGCTGCCATATTATACACACATTTTTAAAAAAATT [CACACA_site3843]”, the “gcPBM binding intensity (ln)” value is 8.48 ± 0.26.

With “AAATATTACCATGTGAAAATTTTACTGCAACATGAA [TGCATGCA_negctrl_site609]”, the “gcPBM binding intensity (ln)” value amounted to 8.71 ± 0.38.

Consider “TATAGCATATCTCACACACACATAATGAATATTATA [CACACA_site5877]”, for which the “gcPBM binding intensity (ln)” value amounted to 8.58 ± 0.51.

As to “ATATTAAACAGACACACACACATATATTTATTTATA [CACACA_site7564]”, the “gcPBM binding intensity (ln)” value was found to be 8.44 ± 0.38.
